# Results taken from ChEMBL document CHEMBL5606458, “ASAP - ZIKV NS2B-NS3 protease fluorescence single point” (2024).
# The campaign covered roughly 2,700 compounds. About 160 (5.9%) showed an effect of 50% or more. Some of the results follow.
# Target: Nonstructural protein 3 (Zika virus) (UniProt A0A024AXB9)
# [1] = PRVABC59, Concentration 15.0 uM, Number of replicates 1.0
# [2] = PRVABC59, Concentration 50.0 uM, Number of replicates 1.0
# [3] = PRVABC59, Concentration 10.0 uM, Number of replicates 1.0
# Sequence of UniProt A0A024AXB9 (A0A024AXB9 as listed by the source): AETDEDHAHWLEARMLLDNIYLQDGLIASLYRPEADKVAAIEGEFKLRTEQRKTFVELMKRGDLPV
smiles,measurement,setting,value
O=C(Nc1cccc2c(=O)[nH][nH]c(=O)c12)c1cc(Cl)ccc1NS(=O)(=O)c1ccc(Oc2ccccc2Cl)cc1,inhibition,[1],-9.44%
O=Cc1ccc(N2CCC(C(=O)N3CC=C(c4ccccc4)CC3)CC2)cc1,inhibition,[2],4.9%
Cc1cc(C(=O)N2CCN(C(=O)c3cc(C(C)(F)F)n[nH]3)CC2)cc2nn[nH]c12,inhibition,"PRVABC59, Concentration 49.5 uM, Number of replicates 2.0, Standard deviation 3.4651697001969515 %",2.52%
same,inhibition,"PRVABC59, Concentration 99.01 uM, Number of replicates 2.0, Standard deviation 1.9800968752054615 %",2.99%
same,inhibition,"PRVABC59, Concentration 198.0 uM, Number of replicates 2.0, Standard deviation 0.03838970984723889 %",4.49%
Cc1nnc([C@H](C)n2cc(C3CCNCC3)c(C)n2)o1,inhibition,"PRVABC59, Concentration 49.5 uM, Number of replicates 2.0, Standard deviation 2.1226892731992764 %",2.86%
same,inhibition,"PRVABC59, Concentration 99.01 uM, Number of replicates 2.0, Standard deviation 0.905054217811843 %",1.28%
same,inhibition,"PRVABC59, Concentration 198.0 uM, Number of replicates 2.0, Standard deviation 2.9276356642253165 %",-2.8%
CCCOc1ccc([C@H](C)NC(=O)c2cc(Cl)ccc2NS(=O)(=O)c2ccc(Oc3ccccc3Cl)cc2)cc1,inhibition,[1],24.9%
O=C(O)c1cnn([C@H]2CCCN(C(=O)c3c[nH]c4ccccc34)C2)c1,inhibition,"PRVABC59, Concentration 49.5 uM, Number of replicates 2.0, Standard deviation 1.3083534915556765 %",-0.332%
same,inhibition,"PRVABC59, Concentration 99.01 uM, Number of replicates 2.0, Standard deviation 2.0130508217065533 %",0.299%
same,inhibition,"PRVABC59, Concentration 198.0 uM, Number of replicates 2.0, Standard deviation 2.766973268547789 %",2.52%
O=Cc1ccc(N2CCC(C(=O)NC3(c4cccc(F)c4)CC3)CC2)cc1,inhibition,[3],22.2%
CC(C)[C@H](CNC(=O)C1CCN(c2ccc(C=O)cc2)CC1)N1CCCC1,inhibition,[2],27.7%
Cc1cc(CO)c2cccc(Cc3cccc(NC(=O)CN4CCOCC4)c3)c2n1,inhibition,"PRVABC59, Concentration 49.95 uM, Number of replicates 2.0, Standard deviation 1.6911147851442576 %",-1.23%
same,inhibition,"PRVABC59, Concentration 99.9 uM, Number of replicates 2.0, Standard deviation 0.24588909748480092 %",3.02%
O=Cc1ccc(N2CCC(C(=O)N3CCN(Cc4ccc(OC(F)(F)F)cc4)CC3)CC2)cc1,inhibition,[2],22.1%
CN1CCN(CCCNC(=O)c2cc(Cl)ccc2NS(=O)(=O)c2ccc(Oc3ccccc3Cl)cc2)CC1,inhibition,[1],8.04%
Cc1cc(CO)c2cccc(C[C@H](NC(=O)CN3CCOCC3)C(=O)O)c2n1,inhibition,"PRVABC59, Concentration 49.95 uM, Number of replicates 2.0, Standard deviation 2.0975845871774594 %",-5.11%
same,inhibition,"PRVABC59, Concentration 99.9 uM, Number of replicates 2.0, Standard deviation 1.4402075468984918 %",-0.323%
O=C(NCCc1c[nH]nc1O)[C@]1(c2ccc(F)cc2)CCCNC1,inhibition,"PRVABC59, Concentration 49.5 uM, Number of replicates 2.0, Standard deviation 1.0104116453139207 %",-0.117%
same,inhibition,"PRVABC59, Concentration 99.01 uM, Number of replicates 2.0, Standard deviation 1.4534382434361832 %",-0.456%
same,inhibition,"PRVABC59, Concentration 198.0 uM, Number of replicates 2.0, Standard deviation 0.8756900869858181 %",-1.21%
Nc1cccc2nccnc12,inhibition,"PRVABC59, Concentration 99.9 uM, Number of replicates 2.0, Standard deviation 9.69887366176999 %",-7.97%
O=Cc1ccc(N2CCC(C(=O)Nc3c(F)cc(F)cc3[N+](=O)[O-])CC2)cc1,inhibition,[2],25.8%
O=C(NCc1ccc(-c2ccccn2)cc1)c1cc(Cl)ccc1NS(=O)(=O)c1ccc(Oc2ccccc2Cl)cc1,inhibition,[1],31.7%
Cc1cc(CO)c2cccc(Cc3cccc(NC(=O)Cc4cccc(CN)c4)c3)c2n1,inhibition,"PRVABC59, Concentration 49.95 uM, Number of replicates 2.0, Standard deviation 2.5092035223767977 %",6.18%
same,inhibition,"PRVABC59, Concentration 99.9 uM, Number of replicates 2.0, Standard deviation 2.4583076624646183 %",22.9%
O=C(c1cc(Cl)ccc1NS(=O)(=O)c1ccc(Oc2ccccc2Cl)cc1)N1CCN(Cc2ccc(OC(F)(F)F)cc2)CC1,inhibition,[1],22.8%
CCCCCC(=O)N[C@H](C(=O)N1CCCCC1)c1ccc(OCc2ccccc2)cc1,inhibition,"PRVABC59, Concentration 49.5 uM, Number of replicates 2.0, Standard deviation 4.155813079418174 %",-3.48%
same,inhibition,"PRVABC59, Concentration 99.01 uM, Number of replicates 2.0, Standard deviation 6.423147460184428 %",-4.58%
same,inhibition,"PRVABC59, Concentration 198.0 uM, Number of replicates 2.0, Standard deviation 4.695102110161803 %",-6.32%
CC(C)(C)N(Cc1ccc(Br)cc1)C(=O)c1cc(Cl)ccc1NS(=O)(=O)c1ccc(Oc2ccccc2Cl)cc1,inhibition,[1],25.4%
C[Si](C)(C)CN(Cc1ccccc1)C(=O)C1CCN(c2ccc(C=O)cc2)CC1,inhibition,[2],20.2%
Cn1cc(NC(=O)c2ccccc2C(F)(F)F)c(-c2cnn(CCF)c2)n1,inhibition,"PRVABC59, Concentration 49.5 uM, Number of replicates 2.0, Standard deviation 2.4876894106733207 %",-7.64%
same,inhibition,"PRVABC59, Concentration 99.01 uM, Number of replicates 2.0, Standard deviation 1.4033120271246613 %",-7.93%
same,inhibition,"PRVABC59, Concentration 198.0 uM, Number of replicates 2.0, Standard deviation 1.5328185030054198 %",-7.48%
Cn1c(C(=O)Nc2cc(Cl)cc(C(=O)NC(C)(C)CO)c2)cccc1=O,inhibition,"PRVABC59, Concentration 49.5 uM, Number of replicates 2.0, Standard deviation 1.7250008408103041 %",-1.68%
same,inhibition,"PRVABC59, Concentration 99.01 uM, Number of replicates 2.0, Standard deviation 1.6306488405382398 %",-2.34%
same,inhibition,"PRVABC59, Concentration 198.0 uM, Number of replicates 2.0, Standard deviation 2.3177776151355625 %",-1.7%
Cn1ccnc1[C@@H](O)C1CCN(C(=O)c2cc(Cl)ccc2NS(=O)(=O)c2ccc(Oc3ccccc3Cl)cc2)CC1,inhibition,[1],4.74%
Cc1cc(CO)c2cccc(Cc3ccccc3NC(=O)Cc3c[nH]c4ccccc34)c2n1,inhibition,"PRVABC59, Concentration 49.95 uM, Number of replicates 2.0, Standard deviation 1.7355748528989599 %",0.821%
same,inhibition,"PRVABC59, Concentration 99.9 uM, Number of replicates 2.0, Standard deviation 0.9670354996725093 %",10.8%
CN(CCCCc1ccccc1)C(=O)C1CCN(c2ccc(C=O)cc2)CC1,inhibition,[2],25.1%
c1ccc(-n2cc(CN3CCC(c4c[nH]c5cccnc45)CC3)nn2)cc1,inhibition,"PRVABC59, Concentration 49.5 uM, Number of replicates 2.0, Standard deviation 3.7237300369523103 %",-4.19%
same,inhibition,"PRVABC59, Concentration 99.01 uM, Number of replicates 2.0, Standard deviation 1.918913643921349 %",-5.6%
same,inhibition,"PRVABC59, Concentration 198.0 uM, Number of replicates 2.0, Standard deviation 1.5169790429854497 %",-5.11%
CC(C)C(=O)N1CCN(C(=O)C2CCN(c3ccc(C=O)cc3)CC2)CC1,inhibition,[2],19.4%
O=C(NCCc1ccccc1C(F)(F)F)c1cc(Cl)ccc1NS(=O)(=O)c1ccc(Oc2ccccc2Cl)cc1,inhibition,[1],28.5%
O=Cc1ccc(N2CCC(C(=O)N3CCCN(c4ccc(C(F)(F)F)cn4)CC3)CC2)cc1,inhibition,[2],19.9%
O=Cc1ccc(N2CCC(C(=O)Nc3ccc(OCc4ccccc4)cc3)CC2)cc1,inhibition,[2],6.28%
O=C(Nc1ccc(Br)cc1O)c1cc(Cl)ccc1NS(=O)(=O)c1ccc(Oc2ccccc2Cl)cc1,inhibition,[1],58.9%
CCN(CC)CCN(CCN(CC)CC)C(=O)C1CCN(c2ccc(C=O)cc2)CC1,inhibition,[2],21.2%
Cc1ncoc1CN1CCC(c2c[nH]c3cccnc23)CC1,inhibition,"PRVABC59, Concentration 49.5 uM, Number of replicates 2.0, Standard deviation 1.060972142752499 %",-1.29%
same,inhibition,"PRVABC59, Concentration 99.01 uM, Number of replicates 2.0, Standard deviation 0.12325997575665598 %",-2.37%
same,inhibition,"PRVABC59, Concentration 198.0 uM, Number of replicates 2.0, Standard deviation 0.5351668582250209 %",-2.66%
Cc1cccc(C)c1OC[C@H](C)NC(=O)c1cc(Cl)ccc1NS(=O)(=O)c1ccc(Oc2ccccc2Cl)cc1,inhibition,[1],17.7%
O=Cc1ccc(N2CCC(C(=O)NC(c3ccccc3)(c3ccccc3)c3ccccc3)CC2)cc1,inhibition,[3],43.6%
CC(C)Cn1cccc(C(=O)N[C@H]2CCCNC2)c1=O,inhibition,"PRVABC59, Concentration 49.5 uM, Number of replicates 2.0, Standard deviation 1.6928260604634553 %",-1.16%
same,inhibition,"PRVABC59, Concentration 99.01 uM, Number of replicates 2.0, Standard deviation 0.8464130526222409 %",0.121%
same,inhibition,"PRVABC59, Concentration 198.0 uM, Number of replicates 2.0, Standard deviation 0.8007638220735158 %",-3.94%
O=C(c1cc(Cl)ccc1NS(=O)(=O)c1ccc(Oc2ccccc2Cl)cc1)N1CCC(Cc2ccc(Br)cc2)CC1,inhibition,[1],2.65%
O=C(c1cc(Cl)ccc1NS(=O)(=O)c1ccc(Oc2ccccc2Cl)cc1)N1CCN(c2ncc(C(F)(F)F)cc2Cl)CC1,inhibition,[1],13.7%
CCn1ncc(N)c1-c1nn(C)cc1NC(=O)c1ccccc1C(F)(F)F,inhibition,"PRVABC59, Concentration 49.5 uM, Number of replicates 2.0, Standard deviation 2.6836674093613992 %",-1.07%
same,inhibition,"PRVABC59, Concentration 99.01 uM, Number of replicates 2.0, Standard deviation 2.426452526451054 %",-2.49%
same,inhibition,"PRVABC59, Concentration 198.0 uM, Number of replicates 2.0, Standard deviation 2.919297584597012 %",-5.52%
Cc1cc(CO)c2cccc(C[C@H](NC(=O)[C@@H](N)c3ccsc3)C(=O)O)c2n1,inhibition,"PRVABC59, Concentration 49.95 uM, Number of replicates 2.0, Standard deviation 2.4839816681161206 %",-1.02%
same,inhibition,"PRVABC59, Concentration 99.9 uM, Number of replicates 2.0, Standard deviation 1.7714052375172231 %",5.18%
CCCCN(CCCC)CCCNC(=O)C1CCN(c2ccc(C=O)cc2)CC1,inhibition,[2],27.6%
CC(C)[C@H](CNC(=O)c1cc(Cl)ccc1NS(=O)(=O)c1ccc(Oc2ccccc2Cl)cc1)N1CCCC1,inhibition,[1],25.1%
O=C(c1cc(Cl)ccc1NS(=O)(=O)c1ccc(Oc2ccccc2Cl)cc1)N1CCN(c2cccnc2)CC1,inhibition,[1],3.92%
Cc1cc(CO)c2cccc(NC(=O)NCc3ccc(N)cc3)c2n1,inhibition,"PRVABC59, Concentration 49.95 uM, Number of replicates 2.0, Standard deviation 1.8009998273109058 %",-3.2%
same,inhibition,"PRVABC59, Concentration 99.9 uM, Number of replicates 2.0, Standard deviation 1.0240979492840148 %",3.2%
CN(C)CC(=O)NC1(C)CCN(C(=O)c2ccc3[nH]ncc3c2)CC1,inhibition,"PRVABC59, Concentration 49.5 uM, Number of replicates 2.0, Standard deviation 0.21263675129625192 %",-2.01%
same,inhibition,"PRVABC59, Concentration 99.01 uM, Number of replicates 2.0, Standard deviation 1.0055534202329184 %",-2.56%
same,inhibition,"PRVABC59, Concentration 198.0 uM, Number of replicates 2.0, Standard deviation 0.061605036944009546 %",-2.43%
CC(C)CC(=O)N1CCC(NC(=O)C2CCN(c3ccc(C=O)cc3)CC2)CC1,inhibition,[2],22.7%
CNC(=O)c1cc(Cl)ccc1NS(=O)(=O)c1cccnc1,inhibition,"PRVABC59, Concentration 49.5 uM, Number of replicates 2.0, Standard deviation 4.975502143025385 %",4.59%
same,inhibition,"PRVABC59, Concentration 99.01 uM, Number of replicates 2.0, Standard deviation 1.8642280236847668 %",0.245%
same,inhibition,"PRVABC59, Concentration 198.0 uM, Number of replicates 2.0, Standard deviation 2.8703194905857754 %",2.56%
COc1ccc(CNC(=O)C2CCN(c3ccc(C=O)cc3)CC2)cc1F,inhibition,[3],25.3%
C[C@H](NC(=O)c1cc(Cl)ccc1NS(=O)(=O)c1ccc(Oc2ccccc2Cl)cc1)c1c(F)cccc1F,inhibition,[1],38.6%
Cc1cc(Cl)c2c(N)ccc(C)c2n1,inhibition,"PRVABC59, Concentration 49.95 uM, Number of replicates 2.0, Standard deviation 1.4741281735170297 %",80.8%
same,inhibition,"PRVABC59, Concentration 99.9 uM, Number of replicates 2.0, Standard deviation 0.2024559271573544 %",83.6%
Cc1cc(CO)c2cccc(Cc3cccc(C(=O)Nc4cc(C)[nH]n4)c3)c2n1,inhibition,"PRVABC59, Concentration 49.95 uM, Number of replicates 2.0, Standard deviation 3.093641395210206 %",6.52%
same,inhibition,"PRVABC59, Concentration 99.9 uM, Number of replicates 2.0, Standard deviation 2.134087804085351 %",9.51%
O=Cc1ccc(N2CCC(C(=O)Nc3ccc(F)nc3Br)CC2)cc1,inhibition,[2],20.4%
